# ± gives the standard deviation of the averaged measurements. The full ranking holds about 33,000 sequences; the median of “E-score (dimensionless, -0.5 to 0.5)” is about -0.049, and the highest 2% start at about 0.37. The list shows a part of the results.
# Tested on: T1, PmTbr T-box DNA-binding domain (GST fusion)
# T1 sequence: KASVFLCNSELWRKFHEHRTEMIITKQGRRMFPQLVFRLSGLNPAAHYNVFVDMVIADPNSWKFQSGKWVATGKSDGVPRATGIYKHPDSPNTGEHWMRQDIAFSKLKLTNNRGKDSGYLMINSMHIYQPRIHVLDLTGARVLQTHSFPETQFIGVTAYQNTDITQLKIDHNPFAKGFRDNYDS
# Experiment: PBM E-score of 8-mer (E-score (dimensionless, -0.5 to 0.5)); Tbr is Tbrain of the sea star Patiria miniata (Pm) or the sea urchin Strongylocentrotus purpuratus (Sp); higher = stronger binding preference; most listed sequences are background and not binding sites
# Conditions: the construct has about 5 more residues each side
# Experimental: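 Universal protein-binding microarray (Agilent AMADID 016060, 60-bp probes with a 35-bp variable region) incubated with 200 nM GST-fused Patiria miniata Tbr T-box DNA-binding domain (residues 272-466) in PBS pH 7.5. Scored for every ungapped 8-mer (given with its reverse complement) by the Universal PBM Analysis Suite as E-score (modified Wilcoxon-Mann-Whitney enrichment, range -0.5 to 0.5; >0.45 counts as bound) and Z-score of median probe intensity. Two replicate arrays (datasets 1 and 2).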
# 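Further: 200 nM protein in PBS on universal arrays averaged over duplicate arrays.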
row,Sequence,PBM E-score of 8-mer
1,ATGGCGTA,-0.242 ± 0.01
2,ACTAACGG,0.192 ± 0.005
3,AGGGTGGC,0.191 ± 0.011
4,CGCTCGAG,-0.137 ± 0.039
5,CATGGTGA,0.131 ± 0.041
6,GCGTCCCC,-0.124 ± 0.051
7,CTACTCCA,-0.0451 ± 0.062
8,GACTGAGA,-0.181 ± 0.085
9,ACTCGCCT,-0.00632 ± 0.066
10,ACCGACCT,0.0799 ± 0.086
11,CTCCACGC,-0.00754 ± 0.15
12,CCCTAGTA,-0.0951 ± 0.035
13,CTACCTAA,-0.166 ± 0.089
14,GACTCTGC,-0.224 ± 0.09
15,GGAATGTA,-0.207 ± 0.05
16,AAAACTAC,0.0477 ± 0.035
17,AGCTGGAC,-0.109 ± 0.031
18,GGGCCAAC,-0.007 ± 0.099
19,CTTTGGCA,0.288 ± 0.017
20,AAAAGGAA,-0.00011 ± 0.062
21,AACAGGAT,-0.142 ± 0.096
22,CCAATGTC,0.088 ± 0.055
23,ACCGGACC,-0.138 ± 0.016
24,CATGGCTC,-0.0856 ± 0.1

row,Sequence,PBM E-score of 8-mer
1,GGTCAAAA,-0.179 ± 0.065
2,CCCAGGGC,-0.0441 ± 0.013
3,CATGTGAA,0.179 ± 0.049
4,CTCCAGAG,-0.161 ± 0.025
5,GTGACATA,0.321 ± 0.033
6,AGGACTGG,-0.337 ± 0.007
7,CCTCCTAG,-0.052 ± 0.055
8,GGGTGTAA,0.385 ± 0.013
9,AATTCAAA,-0.153 ± 0.042
10,ACCAAGGG,-0.0317 ± 0.00022
11,AGGGTGCC,0.296 ± 0.026
12,GGTCGCGA,0.335 ± 0.011
13,ATAGTCAA,-0.00619 ± 0.018
14,ACGGACAT,-0.0384 ± 0.04
15,CACAAAGG,-0.114 ± 0.041
16,AGCAGACA,0.0964 ± 0.024
17,CCACAGCC,-0.181 ± 0.043
18,CCCAGTCC,-0.213 ± 0.022
19,CCCACTGA,-0.0919 ± 0.041
20,ATCACAAT,0.187 ± 0.019
21,CACGGAAA,0.0541 ± 0.056
22,TAGATGGA,-0.227 ± 0.037
23,GAGTCCGC,-0.0521 ± 0.036
24,GTAGAATA,-0.203 ± 0.031

row,Sequence,PBM E-score of 8-mer
1,GGACGCAC,-0.0479 ± 0.052
2,ACGTGACG,0.346 ± 0.0083
3,CTAGCAAC,0.188 ± 0.06
4,TCCACGCA,0.0988 ± 0.077
5,ACACGAAT,-0.0114 ± 0.011
6,GTATCGGA,-0.133 ± 0.026
7,CAGCTCGG,-0.115 ± 0.041
8,AACCTAAT,-0.081 ± 0.065
9,AAGCCAGA,-0.334 ± 0.072
10,AATATGAA,-0.0309 ± 0.092
11,CTGCCTGA,-0.251 ± 0.011
12,ACTACCGA,-0.135 ± 0.062
13,ATTCCGCG,0.0745 ± 0.0039
14,GCGCCCGA,0.0762 ± 0.062
15,AGTTTTAG,0.0632 ± 0.01
16,GTTACTTA,-0.0229 ± 0.099
17,AAGACGCA,0.0336 ± 0.048
18,TAGCGACA,0.303 ± 0.015
19,CACCAGAG,0.189 ± 0.034
20,AAATAAGG,-0.132 ± 0.096
21,AGCTCCAC,0.051 ± 0.068
22,ACACGATG,0.193 ± 0.035
23,AGGAAGAC,-0.0858 ± 0.05
24,ACGCCTCA,0.31 ± 0.0035

row,Sequence,PBM E-score of 8-mer
1,ATCGGCGC,0.092 ± 0.071
2,GCATTAAC,0.0905 ± 0.054
3,GGTATAAC,-0.05 ± 0.045
4,TCGGGGCA,-0.234 ± 0.0057
5,TCATCGGA,-0.237 ± 0.0091
6,CCAGAAGG,0.0181 ± 0.0083
7,GTGCTTAA,-0.0304 ± 0.032
8,TAGGATAA,-0.135 ± 0.012
9,CGCTAACC,0.256 ± 0.017
10,ATCGTCAC,0.403 ± 0.0068
11,ACATTTTC,0.157 ± 0.062
12,GACCTCCC,-0.178 ± 0.0044
13,GGACATGA,-0.0323 ± 0.0046
14,ATCCTAAA,-0.391 ± 0.069
15,GCAAGTCA,0.14 ± 0.025
16,ACTGACAA,0.166 ± 0.009
17,ACAACTAA,0.135 ± 0.029
18,ACCTAATA,0.156 ± 0.012
19,AATTATCC,-0.0715 ± 0.11
20,ACATGGTA,0.0743 ± 0.0085
21,ATGAGACC,-0.213 ± 0.023
22,CAAGGGCA,-0.0494 ± 0.062
